Assay results taken from paper PMC6831704.
Results are given in words; binding and its absence hold for the method and conditions named. Binding seen in cells or lysates may run through a third protein. Some binding calls cover weakened binding; strength is not graded here.

Experiments:
[1] = target: endogenous p62 (experiment of Supplementary Fig. S3) (UniProt Q13501); experiment: co-IP; co-immunoprecipitation of Tax (wild type or ubiquitination-defective mutants) or HBZ with endogenous p62; Supplementary Fig. S3; cells not given
[2] = target: p62, endogenous in HTLV-1 chronically infected T cells (human (endogenous in C8166, HuT102 and C91PL)) (UniProt Q13501); experiment: co-IP; lysates of HTLV-1 chronically infected C8166, HuT102 and C91PL cells immunoprecipitated with a p62-specific or Tax-specific antibody or control Ig; 50 mM Tris pH 7.4, 150 mM NaCl, 1% NP40; overnight at 4 °C; western blot
[3] = target: Tax-His (expressed in HeLa cells) (HTLV-1) (UniProt P03409); experiment: co-IP + pull-down; HeLa cells expressing Tax-His and/or IKKγ-FLAG; anti-FLAG M2 immunoprecipitation, elution with 3X FLAG peptide, then His-specific purification on His-select HF agarose beads; western blot
[4] = target: IKKγ-FLAG (expressed in HeLa cells) (UniProt Q9Y6K9); experiment: as above
[5] = target: FLAG-IKKγ (expressed in MEF cells) (UniProt Q9Y6K9); experiment: co-IP; lysates of wild type and p62−/− MEF cells expressing Tax-His and FLAG-IKKγ immunoprecipitated with a FLAG-specific antibody; western blot
[6] = target: Myc-tagged full-length p62 (UniProt Q13501); experiment: co-IP; lysates of p62−/− MEF cells expressing Tax-His and Myc-tagged p62 constructs immunoprecipitated with a Myc-specific antibody; western blot
[7] = target: GST-p62Δ123-170 (UniProt Q13501); experiment: pull-down; GST and GST-tagged p62 proteins from E. coli immobilized on glutathione-coupled Sepharose beads; in vitro translated [35S]-labeled Tax; SDS-PAGE and autoradiography; only the target purified
[8] = target: GST-p62Δ371-385 (UniProt Q13501); experiment: as above
[9] = target: GST-p62Δ170-256 (UniProt Q13501); experiment: as above
[10] = target: GST-p62Δ256-370 (UniProt Q13501); experiment: as above
[11] = target: GST-p62 (UniProt Q13501); experiment: as above
[12] = target: MBP-p62(170-206) (UniProt Q13501); experiment: pull-down; MBP and MBP-tagged p62 proteins from E. coli immobilized on amylose resin; in vitro translated [35S]-labeled Tax; SDS-PAGE and autoradiography; only the target purified

wild type Tax (His-tagged; experiment of Supplementary Fig. S3) (from UniProt P03409 1-353)
binding [1]: binds

Tax, endogenous in HTLV-1 chronically infected T cells (from UniProt P03409 1-353)
binding [2]: binds

p62, endogenous in HeLa cells (from UniProt Q13501 1-440)
binding [3]: binds
binding [4]: binds

Tax-His (expressed in MEF cells) (from UniProt P03409 1-353)
binding [5]: binds
binding [6]: binds

in vitro translated 35S-labeled Tax (from UniProt P03409 1-353)
binding [7]: binds
binding [8]: binds
binding [9]: no binding
binding [10]: binds
binding [11]: binds
binding [12]: binds

Tax-His (expressed in HeLa cells) (from UniProt P03409 1-353)
binding [4]: binds
